Reference: PubChem BioAssay AID1671188 (National Center for Advancing Translational Sciences (NCATS), 2021)
About 250 (0.25%) of roughly 100,000 compounds were called active. Inconclusive results, whose numbers are uncertain, are shown with a selection of clear calls. The call rests on the fitted dose curve; in most records, active means well fitted inhibition curve with a large enough effect; inconclusive means small, poorly fitted or top-dose-only effect; inactive means flat fitted curve, though single readings scatter. Potencies of inconclusive entries are left out as doubtful fits.

target: Alanine aminotransferase 2 (Homo sapiens) (UniProt Q8TD30); experiment: Primary qHTS assay for inhibitors of Glutamate pyruvate transaminase 2 (GPT2); details: Recombinant GPT2, coupled pyruvate oxidase/HRP Amplex Red fluorescence; activity change, negative = inhibition: at 57.7 µM (top of the series) unless noted; series mostly up to 57.7 µM; further: nearly all actives have a fitted effect of over 60% in size
UniProt Q8TD30, sequence (Q8TD30 whole entry, looked up): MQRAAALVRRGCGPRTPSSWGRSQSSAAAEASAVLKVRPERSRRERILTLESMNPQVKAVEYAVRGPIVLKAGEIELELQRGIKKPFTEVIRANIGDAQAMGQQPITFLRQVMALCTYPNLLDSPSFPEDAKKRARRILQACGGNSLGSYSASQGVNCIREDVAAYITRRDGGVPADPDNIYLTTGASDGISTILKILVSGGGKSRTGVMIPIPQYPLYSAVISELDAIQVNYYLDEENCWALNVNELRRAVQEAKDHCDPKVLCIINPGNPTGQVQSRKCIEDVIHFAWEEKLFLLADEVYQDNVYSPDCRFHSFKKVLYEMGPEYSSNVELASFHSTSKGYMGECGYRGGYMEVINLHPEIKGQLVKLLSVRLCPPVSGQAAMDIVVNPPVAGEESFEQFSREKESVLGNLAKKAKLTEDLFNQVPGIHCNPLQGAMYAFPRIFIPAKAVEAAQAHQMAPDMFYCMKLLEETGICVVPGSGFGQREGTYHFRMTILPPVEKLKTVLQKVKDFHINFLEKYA
Summary of the method: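 Fluorescence read-out: pyruvate from GPT2 turnover coupled to pyruvate oxidase, HRP and Amplex Red (0.2mM ThPP, 0.2U/mL PO and HRP, 50uM Amplex final). Substrates 250uM a-KG, 2mM L-alanine; enzyme 10ng/uL; 30 min RT.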
On the % scale 0 is the no-effect control and ±100 the full control effect; potency means the concentration at half of the fitted maximal effect; tags describe the fitted curve by direction and shape.

SMILES | Potency | outcome | activity change, negative = inhibition
CN(C)c1cccc(C(=O)NC2CCN(c3cc(-c4cccs4)[nH]n3)C2)c1 (stereo not drawn) | inconclusive [inhibitor, partial curve, poor fit] | – | –
O=C(NCc1cccc(Cl)c1)c1cc(-c2cccs2)c2cccn2n1 | inconclusive [inhibitor, full curve, poor fit] | – | –
CCCC(=O)N1Cc2ccccc2CC2(CCN(Cc3ccccn3)C2)C1 (stereo not drawn) | inconclusive [inhibitor, single point] | – | –
O=C1O[C@H](CO)[C@@H](O)[C@H](O)[C@H]1O | inconclusive [inhibitor, single point] | – | –
COc1cccc(C(=O)N2CC(Oc3ccccc3-c3nc(-c4cnccn4)no3)C2)c1 | – | inactive | –
Cc1ccc(NC(=O)CCNc2c(C)nc3cnccn23)c(F)c1 | inconclusive [inhibitor, partial curve, poor fit] | – | –
COC[C@@]12CC[C@@H](N3CCOCC3)C[C@H]1CCN(Cc1cccc3nonc13)C2 | inconclusive [inhibitor, full curve, poor fit] | – | –
CSc1ccc(NC2=N[C@H]3[C@@H](O)[C@H](O)C[C@H](C(=O)NCCN4CCOCC4)[C@H]3S2)cc1 | inconclusive [inhibitor, partial curve, poor fit] | – | –
COc1ccc(CCC(=O)N2CCCN(c3cc(-c4ccc(Br)cc4)[nH]n3)CC2)cc1 | inconclusive [inhibitor, single point] | – | –
O=C(c1ccccc1Cl)N1CCCC(C(=O)N2CCCC(c3nc4ccncc4[nH]3)C2)C1 (stereo not drawn) | inconclusive [inhibitor, single point] | – | –
O=C1CC2(CCN(Cc3ccc(C(F)(F)F)cc3F)C2)C(=O)N1 (stereo not drawn) | – | inactive [at 11.5 µM] | –
COc1cccc(N2CC3(COCC2=O)CN(c2ccc(C(F)(F)F)cn2)C3)c1 | inconclusive [inhibitor, full curve, poor fit] | – | –
COc1ccc2[nH]c3c(c2c1)CCNC31CCN(C(=O)c2ocnc2C)CC1 | – | inactive | –
CC1=C[C@@H](CNCc2cccnc2)[C@H](C(C)C)C[C@H]1Cc1nnc(-c2ccc([N+](=O)[O-])cc2)o1 | – | inactive | –
COc1cccc(C(=O)NC2CCN(c3cnn(C)c(=O)c3)CC2)c1 | inconclusive [inhibitor, single point] | – | –
Cn1nc(C(=O)N2CCCN(c3cc(-c4ccccc4)[nH]n3)CC2)c2ccccc21 | inconclusive [inhibitor, partial curve, poor fit] | – | –
COc1cncc(Nc2cnc3ccc(N(C)Cc4ccc(F)cc4)nn23)c1 | inconclusive [inhibitor, single point] | – | –
O=C(NCc1ccc(F)cc1)c1cc(-c2ccc[nH]2)n[nH]1 | – | – | inactive: 2.08%
Cc1ccccc1C(=O)N1CCC(n2cc(-c3nc(-c4ccccc4)no3)nn2)CC1 | – | inactive | –
NC1CCc2nn(CC(=O)NCc3ccc4c(c3)OCO4)c(=O)n2CC1 (stereo not drawn) | inconclusive [inhibitor, single point] | – | –
O=c1c2c(CO)c(-c3ccc(F)cc3)nn2ccn1Cc1ccc(F)cc1 | – | – | inactive: -21.4%

SMILES | Potency | outcome | activity change, negative = inhibition
O=C(NC1CCCN(c2cc(-c3ccccc3)[nH]n2)C1)c1ccc(F)cc1Cl (stereo not drawn) | inconclusive [inhibitor, single point] | – | –
O=C1NCCCCCN(Cc2cccnc2)[C@@H]2CN(C(=O)Nc3ccccc3F)CC[C@@H]12 | inconclusive [inhibitor, partial curve, poor fit] | – | –
CC(N)(Cc1ccc(O)c(O)c1)C(=O)O (stereo not drawn) | active: 8.91 µM | – | –
O=C(N[C@H]1CO[C@H]2[C@@H]1OC[C@@H]2n1nnnc1Oc1ccc(-n2ccnc2)cc1)C1CCCCC1 | inconclusive [inhibitor, single point] | – | –
O=C1Nc2ccccc2CC12CCCN2Cc1ccccc1 (stereo not drawn) | inconclusive [inhibitor, single point] | – | –
C#CCNC(=O)c1nc(-c2ccccc2OC)c2cnccn12 | inconclusive [inhibitor, full curve, poor fit] | – | –
COc1ccc(C(=O)n2c(C)c(Cc3cccc(O[C@@H](C)C(=O)O)c3)c3cc(OC(F)(F)F)ccc32)cc1 | inconclusive [inhibitor, partial curve, poor fit] | – | –
CSc1ccc(-c2ccc3c(c2)C(=O)N2CC[C@H](NC(=O)C4CCCC4)[C@H]2C(=O)N3)cc1 | inconclusive [inhibitor, single point] | – | –
Cn1ccc2c(C(=O)NCCc3cnc[nH]3)nc(-c3cccnc3)cc21 | – | inactive [at 88.5 µM] | –
COc1cc(Nc2ncc(F)c(Nc3ccc4c(n3)NC(=O)C(C)(C)O4)n2)cc(OC)c1OC | inconclusive [inhibitor, single point] | – | –
COc1cccc(Nc2cnc3ccc(-c4ccccc4OC)nn23)c1 | inconclusive [inhibitor, full curve] | – | –
c1ccc(-c2ccc(CNCc3cccs3)o2)cc1 | – | – | inactive: -18.3%
O=C1[C@@H]2C[C@@H](CN2C(=O)c2ccc(C(F)(F)F)cc2)Oc2ccccc2N1Cc1ccccc1 | inconclusive [inhibitor, partial curve, poor fit] | – | –
CC1CCN(C(=O)CCc2nc(C3CCCN3C(=O)NC(C)C)no2)CC1 (stereo not drawn) | – | – | inactive: 3.72%
Nc1ccc(-c2nc3ccc(-c4nc5ccc(N)cc5[nH]4)cc3[nH]2)cc1 | inconclusive [inhibitor, single point] | – | –
CC(C)(C)CC(=O)N1CCC(N2CC3CC(C2)[C@H]2CCCC(=O)N2C3)CC1 (stereo partly drawn) | inconclusive [inhibitor, partial curve, poor fit] | – | –
C=CC(=O)Nc1cccc(Nc2nc(Nc3ccc(N4CCN(C(C)=O)CC4)cc3OC)ncc2C(F)(F)F)c1 | active: 3.16 µM | – | –
COc1ccc(N2CC3CCC(C2)N3Cc2cccs2)cc1 | inconclusive [inhibitor, full curve] | – | –
CC(=O)Nc1ccc(CN2CCC3(COc4ncccc4[S+](=O)([O-])N3)C2)cc1 (stereo not drawn) | inconclusive [inhibitor, single point] | – | –
Cc1cnc(CN(C)C(=O)CC(c2ccccc2)c2ccc(Cl)cc2)[nH]1 (stereo not drawn) | inconclusive [inhibitor, single point] | – | –
C=CCNC(=O)[C@@H]1Cc2c[nH]c3cccc(c23)[C@H](CC(C)C)N1 | inconclusive [inhibitor, single point] | – | –

SMILES | Potency | outcome | activity change, negative = inhibition
CCC(CC)c1nc(COC(=O)C2=CN(Cc3ccc(OC)cc3)S(=O)(=O)N=C2C)no1 | – | – | inactive: 1.64%
CN1CCN(C[C@@H]2CN(C(=O)C3(c4ccccc4)CC3)C[C@@H]2CO)CC1 | – | – | inactive: 3.8%
CCn1ccc2sc(C)c(C(=O)NCCC(C)C)c2c1=O | inconclusive [inhibitor, partial curve, poor fit] | – | –
COc1ccc(CCNC(=O)c2ccc3nnc(-c4cccc(C(F)(F)F)c4)n3c2)cc1 | inconclusive [inhibitor, single point] | – | –
Oc1ccc(Cl)c2cccnc12 | inconclusive [inhibitor, single point] | – | –
O=C(CCC1CCCN(S(=O)(=O)c2cccc(F)c2)C1)NCC1CC1 (stereo not drawn) | inconclusive [inhibitor, single point] | – | –
Cc1cccc(C)c1-c1cc(C(=O)NCc2ccc(C(F)(F)F)cc2)c2cnn(C)c2n1 | – | inactive | –
COc1ccccc1CC(=O)NC1CCN(c2cc(-c3ccccc3)[nH]n2)C1 (stereo not drawn) | inconclusive [inhibitor, partial curve] | – | –
C/C=C/c1cc(OC)c2c(c1)[C@@H](C)[C@@H](c1ccc(O)c(OC)c1)O2 | inconclusive [inhibitor, single point] | – | –
COCc1noc([C@@H]2CN(Cc3ccc4c(c3)CCO4)C[C@H]2C(N)=O)n1 | inconclusive [inhibitor, single point] | – | –
CCn1ccc2sc(C)c(C(=O)N3CCOCC3)c2c1=O | inconclusive [inhibitor, full curve, poor fit] | – | –
COc1ccc(C2(C(=O)N3CCCN(c4cc(-c5ccc(C)c(C)c5)[nH]n4)CC3)CC2)cc1 | inconclusive [inhibitor, partial curve] | – | –
O=C(C1CCCN1C(=O)c1ccc(F)cc1)N1CCC(N2Cc3cccn3C2=O)CC1 (stereo not drawn) | – | – | inactive: -20%
Cn1nccc1CN1CC(Oc2ccc(F)c(F)c2)C1 | inconclusive [inhibitor, single point] | – | –
COc1ccccc1CN1CC[C@@H](CO)N(C)c2nc(C)ccc2C1 | inconclusive [inhibitor, partial curve, poor fit] | – | –
Clc1cccc(CN2CC[C@H](c3nc4ccccc4o3)C2)c1 | – | inactive [at 88.5 µM] | –
CC(=O)NC1CCCN(Cc2cccc(OCCN3CCOCC3)c2)C1 (stereo not drawn) | inconclusive [inhibitor, single point] | – | –
COCC(=O)Nc1ccc(-n2ccnc2-c2ccc(O)c(OC)c2)cc1C | inconclusive [inhibitor, single point] | – | –
COCCCNc1ccc(C(=O)N2CCC(CN3CCCC3=O)CC2)cn1 | – | – | inactive: 3.46%
COC(=O)c1sccc1S(=O)(=O)Nc1ccc(Nc2ccccc2)cc1OC | inconclusive [inhibitor, partial curve, poor fit] | – | –
Cc1ccoc1C(=O)N1CCCn2ccnc2C1c1cnn(C)c1 (stereo not drawn) | inconclusive [inhibitor, single point] | – | –
